± gives the standard deviation of the averaged measurements. The list shows a part of the results.
What follows are sequences tested on PfAP2-G AP2 domain (GST-tagged) (assay: gcPBM binding intensity (ln(normalized median fluorescence intensity)); higher = stronger DNA binding).
Outline: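 Each value is the highest Masliner-normalised natural-log median intensity across replicate spots of either orientation of a probe. The probes were primer-extended double-stranded 36-bp intergenic genomic sequences on an Agilent 4 × 180k array, alongside negative controls, exposed for 1 h to GST-tagged P. falciparum DNA-binding domains expressed in E. coli. Bound protein was picked up with Alexa488 anti-GST antibody and scanned at 488 nm.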

Sequence	gcPBM binding intensity (ln)
AATTATATTAATATATAATAAAATAGGATGTTATTT [XGTACX_negctrl_site309]	9.52 ± 0.28
CTTATTTTATGTTATACACACAAAGAAAAAAAATAA [CACACA_site2165]	10.2 ± 0.2
ATATATATATTTAAGGTGCGATTTTGTTATATTTAA	9.9 ± 0.2
TTTTTATTAGGACATGCATACAAAATTAAAAAAAAT [TGCATGCA_site258]	10.5 ± 0.52
AAAAAAAAAAAAAATTGTACCCAAATATTTTTGTAG [XGTACX_site8303]	11.2 ± 0.62
TATTAATTTATTTGTTGTACGTAAATATGCTTGTTT [XGTACX_site6591]	11.6 ± 0.89
TATAAAATACTGTATCGATGGGGGAGGGCGCAGGGG [TGCATGCA_negctrl_site250]	11.6 ± 0.76
AAAAAAAAAAAAAAAAAAAAAAAAAAAGATTATGAG [CACACA_negctrl_site1088]	11.1 ± 0.6
TTTTAAGTTTTTGAATGTACGTAATTTGTAAATTCT [XGTACX_site2448]	11.2 ± 0.83
TCAAATGTATATAATTGTACTTATCCTTTTCATTTT [XGTACX_site4879]	11.2 ± 0.67
AAAAATTAGAAACACACACACATATATATATATATT [CACACA_site1042]	9.84 ± 0.13
TAATGGAGAAAATAATGTACTTAGATATTTGTTCTA [XGTACX_site6312]	10.8 ± 0.51
TTACTTGTTTATTTTTTTTTTTTTTTTTTTTTTGTT [TGCATGCA_negctrl_site103]	9.47 ± 0.028
CATATATAGATATATACACACATATAGATTTTCTTT [CACACA_site6797]	9.71 ± 0.16
AACTATAATTAAAGGATGCACTTGAAGGCATTTCAA [GTGCAC_site9689]	9.875 ± 0.007
TATTCATAACAATGATGTACATATATTTTTTTTTTC [XGTACX_site5619]	11.2 ± 0.71
AAGAACAAACAAAATAGTACAATATATATATATATA [XGTACX_site4258]	11.2 ± 0.76
TTTAAATATTTTATAGCATGCTACCAATATGTATAT [TGCATGCA_site291]	10.1 ± 0.23
TACACCCAGAAATGCACACACATATATATATATATA [CACACA_site5289]	10.1 ± 0.23
ATGAACATGTGACAATGTACATTTATATCTTAAGAA [XGTACX_site4960]	10.8 ± 0.43
ATAATATATATATATATGTATGTATATATGTATGTA [GTGCAC_negctrl_site575]	9.71 ± 0.17
TTAACATAAATTGTGTCATTTTTTTTTTTTTTTTTA [CACACA_negctrl_site1221]	9.725 ± 0.021

Sequence	gcPBM binding intensity (ln)
TATTTTTTAATTGTTTCACACATTATTTTTTACATA [CACACA_site6078]	9.92 ± 0.17
TATTCTTATTATTACACACACAATTATATTTACCCC [CACACA_site6381]	10.28 ± 0.049
TATATATATATAATAGCATGCTATATTATATATATA [TGCATGCA_site886]	9.59 ± 0.73
TATAAACAGACGAAAACACACATATGTAGATATATA [CACACA_site6371]	10.07 ± 0.085
TATATATTAGTGTTGACACACACAAAAAAAAAAAAA [CACACA_site8392]	10.2 ± 0.62
TTAACACATTTTATGTGTACTCATATGATTTAAAAT [XGTACX_site7516]	11.4 ± 1
TTAAAATGAAGAAGTGCACACATATATATATTTATA [CACACA_site8063]	10.4 ± 0.2
AATTTTTTTTTCTTTTGTACGTAAATATGTGTAGGC [XGTACX_site215]	11.4 ± 1.1
AGATTTCAAGGTAATAGATCAATTTTAATTTGTAAA [CACACA_negctrl_site514]	9.645 ± 0.064
ATTTTTTTTTTTTTTTTTTTTTTTTTTTTTTTTTTT [CACACA_negctrl_site1364]	11.1 ± 0.6
ATCAGGCAAAATTTTTGTACATATATATTTTATTTT [XGTACX_site1245]	10.9 ± 0.43
ATTTTTTTTTTTTTTTTTTTTTTTTATGAATGTTAT [CACACA_negctrl_site1319]	9.6 ± 0.014
TTATAAATGTGCGTAGTGCATAAACAAAAAAAAAAT	10.4 ± 0.3
AAAAAAAAAAAACATACACACATTGAACTTTTATAT [CACACA_site3250]	9.955 ± 0.021
ATAAAATAAAAATTCTGTACAGAATTAAAAAAATAT [XGTACX_site6961]	10.9 ± 0.53
TATATGTGATAACACGCACACAAATGTATATAATTT [CACACA_site2593]	10.3 ± 0.17
AAAAAAAGTAAAAAGTGTACTTAATATATATATATA [XGTACX_site838]	11.3 ± 0.86
TGTAGCATTTAATTCACACATAAAAAATGTATCCAT [CACACA_site4986]	10.3 ± 0.34
TACACACCTAACTATGCATGCATCAATATAGTGGAT [TGCATGCA_site443]	9.66 ± 0.21
TTTTATATAAATATCACACACACACGCATGTTTTAA [CACACA_site6187]	10.1
TACAATATACCTACTTGTACACAAAATAAAAGTAGT [XGTACX_site6029]	11.4 ± 0.73
AAAAAAAAATTAAACATACACACGTTACTATTTTTA [CACACA_site1687]	9.64 ± 0.26

Source: the supplement of paper PMC11417369
